Counter-ions that a name gives are not always drawn. Over roughly 2,000 compounds, “fractional viability relative to vehicle” has its median near 0.92; the lowest 2% begin near 0.11. The list shows a part of the results.

This experiment deals with TYKNU. Put plainly: fractional viability relative to vehicle; TYKNU is a high-grade serous ovarian cancer line; higher = less growth inhibition. The settings on record: 72 h, genotype: OPA1 knockout (sgOPA1 #2). The essentials: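 TYKNU control cells or lentiCRISPRv2 knockout derivatives were seeded at 500 cells per well into drug-stamped 384-well plates holding a ~2100-compound library at 2 or 10 μM, in duplicate. Cells were grown at 37 °C in 5% CO2 in RPMI 1640 with 10% FBS, and drug treatment lasted 72 h. Viability was read by Cell Titer Glo luminescence. Duplicate treatment wells were averaged and normalised to duplicate control wells from the same plate position.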

On to `C=C[C@@]1(C)CC(=O)[C@]2(O)[C@@]3(C)[C@@H](O)CCC(C)(C)[C@@H]3[C@H](O)[C@H](OC(C)=O)[C@@]2(C)O1` [Forskolin], for which the fractional viability reads like this: (2uM) 1.08; (10uM) 0.84.
As to `O=C(CCCCCN1C(=O)c2cccc3cccc(c23)C1=O)NO` [Scriptaid], the fractional viability (2uM) turned out to be 0.538 and the fractional viability (10uM) came to 0.229.
For the molecule `COc1cc2/c(=N/c3ccc(Br)cc3F)nc[nH]c2cc1OCC1CCN(C)CC1` [Vandetanib (ZD6474)], the fractional viability reads like this: (2uM) 1.31; (10uM) 0.638.
Regarding `CCOC(=O)C1=C(C)NC(C)=C(C(=O)OCC)C1c1ccccc1/C=C/C(=O)OC(C)(C)C` [Lacidipine], the fractional viability turned out to be 1.04 (2uM) and 0.853 (10uM).
`O=C(O)C(Cc1c[nH]c2ccccc12)N1C(=O)c2ccccc2C1=O` (stereo unspecified) returned a fractional viability (2uM) of 0.905 and a fractional viability (10uM) of 0.771.
Taken in the same sequence, the figures for `CCOc1cc(CC(=O)N[C@@H](CC(C)C)c2ccccc2N2CCCCC2)ccc1C(=O)O` [Repaglinide] were 0.909 and 0.926.
In the same order, the values of `C#C[C@]1(O)CC[C@H]2[C@@H]3CCc4cc(O)ccc4[C@H]3CC[C@@]21C` [Ethinyl Estradiol] are 1.11 and 0.692.
For the molecule `COc1cc(F)c(F)c(Nc2ccc(I)cc2F)c1NS(=O)(=O)C1(C[C@H](O)CO)CC1` [Refametinib (RDEA119, Bay 86-9766)], the fractional viability runs as follows: (2uM) 0.528; (10uM) 0.41.
For the molecule `O=C(O)c1ccc(N2C(=O)/C(=C\c3ccc(-c4ccc([N+](=O)[O-])cc4)o3)C=C2c2ccccc2)cc1`, the fractional viability is, setting by setting: (2uM) 0.866; (10uM) 0.869.
In the same order, the values of `O=S(=O)(c1ccccc1)N(CC(F)(F)F)c1ccc(C(O)(C(F)(F)F)C(F)(F)F)cc1` are 0.894 and 0.827.
Regarding `CC#CC(=O)Nc1ccc2ncnc(Nc3cccc(Br)c3)c2c1`, the fractional viability runs as follows: (2uM) 0.562; (10uM) 0.317.
As for `Nc1nc2c(ncn2COCCO)c(=O)[nH]1` [Aciclovir], the fractional viability by setting is: (2uM) 1.09; (10uM) 1.27.
Take `COc1ccc2[nH]c([S@@+]([O-])Cc3ncc(C)c(OC)c3C)nc2c1` [Esomeprazole Magnesium]: the fractional viability (2uM) turned out to be 1.32 and the fractional viability (10uM) is 1.34.
`COc1ccc2[nH]c([S@@+]([O-])Cc3ncc(C)c(OC)c3C)nc2c1` [Esomeprazole Sodium]: the fractional viability reads like this: (2uM) 1.35; (10uM) 1.58.
Take `Cc1cc(N2CCOCC2)cc2[nH]c(-c3c(NC[C@@H](O)c4cccc(Cl)c4)cc[nH]c3=O)nc12`: the fractional viability is, setting by setting: (2uM) 0.813; (10uM) 0.447.
Taken in the same sequence, the figures for `CC(C)NCC(O)c1ccc(O)c(O)c1` (stereo unspecified) [Isoprenaline HCl] were 0.972 and 0.988.
As for `CS(=O)(=O)N1CCN(Cc2cc3nc(-c4cccc5[nH]ncc45)nc(N4CCOCC4)c3s2)CC1`, the fractional viability came to 0.824 (2uM) and 0.658 (10uM).
Regarding `CC(=O)OCC(=O)[C@@]1(O)[C@H](C)C[C@H]2[C@@H]3CCC4=CC(=O)C=C[C@]4(C)[C@@]3(F)[C@@H](O)C[C@@]21C` [Dexamethasone Acetate], the fractional viability reads like this: (2uM) 1.2; (10uM) 1.03.
As to `COc1c(N2C[C@@H]3CCCN[C@@H]3C2)c(F)cc2c(=O)c(C(=O)O)cn(C3CC3)c12` [Moxifloxacin HCl], the fractional viability by setting is: (2uM) 0.942; (10uM) 1.64.
Consider `CC1(C)CCC[C@]2(C)[C@H]3CC(=O)O[C@]3(C)CC[C@@H]12` [Sclareolide], for which the fractional viability by setting is: (2uM) 0.805; (10uM) 0.945.
On to `COc1ccc(C(=O)CC(=O)c2ccc(C(C)(C)C)cc2)cc1` [Avobenzone], for which the fractional viability reads like this: (2uM) 0.975; (10uM) 1.09.
Regarding `CCCC1O[C@@H]2C[C@H]3[C@@H]4CCC5=CC(=O)C=C[C@]5(C)[C@H]4[C@@H](O)C[C@]3(C)[C@]2(C(=O)CO)O1` (stereo partly specified) [Budesonide], the fractional viability is, setting by setting: (2uM) 1.28; (10uM) 1.2.
As for `CNC(=O)[C@@H](c1ccccc1)N1CCc2cc(OC)c(OC)cc2[C@@H]1CCc1ccc(C(F)(F)F)cc1` [Almorexant HCl], the fractional viability by setting is: (2uM) 0.995; (10uM) 0.903.
Turning to `COc1cc(C(C)=O)ccc1OCCCN1CCC(c2noc3cc(F)ccc23)CC1` [Iloperidone], the fractional viability was determined as 1.15 (2uM) and 1.02 (10uM).
Consider `COc1ccc(/C=C\c2cc(OC)c(OC)c(OC)c2)cc1O` [Combretastatin A4], for which the fractional viability by setting is: (2uM) 0.313; (10uM) 0.292.
For `c1cc(-c2cnn3cc(-c4ccc(N5CCNCC5)cc4)cnc23)c2cccnc2c1`, the fractional viability amounted to 0.104 (2uM) and 0.0761 (10uM).
As to `NCCCC[C@@H]1NC(=O)[C@@H](Cc2ccccc2)NC(=O)[C@H](CC(=O)O)NC(=O)CNC(=O)[C@H](CCCN=C(N)N)NC1=O` [Cyclo (-RGDfK)], the fractional viability reads like this: (2uM) 0.833; (10uM) 0.865.
As to `CC(C(=O)O)c1cccc(C(=O)c2ccccc2)c1` (stereo unspecified) [Ketoprofen], the fractional viability by setting is: (2uM) 0.94; (10uM) 0.961.
In the case of `CCCCN(Cc1ccc(C(=O)NO)cc1)C(=O)Nc1ccccc1` [Nexturastat A], the fractional viability is, setting by setting: (2uM) 0.793; (10uM) 0.525.
With `COC(=O)N[C@H](C(=O)N1CCC[C@H]1c1ncc(-c2ccc(-c3ccc(-c4cnc([C@@H]5CCCN5C(=O)[C@@H](NC(=O)OC)C(C)C)[nH]4)cc3)cc2)[nH]1)C(C)C`, the fractional viability is 1.14 (2uM) and 0.892 (10uM).
`CC1=C(C(=O)Nc2cc3cn[nH]c3cc2F)C(c2ccc(C(F)(F)F)cc2)CC(=O)N1` (stereo unspecified): the fractional viability was 1.09 (2uM) and 1.16 (10uM).
Turning to `CNC(=O)c1ccccc1Nc1nc(Nc2ccc(N3CCOCC3)cc2OC)ncc1Cl`, the fractional viability reads like this: (2uM) 0.987; (10uM) 0.532.
Regarding `CCOC(=O)c1ncn2c1CN(C)C(=O)c1cc(F)ccc1-2` [Flumazenil], the fractional viability amounted to 1.08 (2uM) and 1.22 (10uM).
Taken in the same sequence, the figures for `Cc1cc(C)c2c(c1)[C@@H](N(Cc1cc(C(F)(F)F)cc(C(F)(F)F)c1)c1nnn(C)n1)CCCN2C[C@H]1CC[C@H](C(=O)O)CC1` were 0.997 and 0.93.
As for `C[C@@H]1CN(c2c(F)c(N)c3c(=O)c(C(=O)O)cn(C4CC4)c3c2F)C[C@H](C)N1` [Sparfloxacin], the fractional viability is, setting by setting: (2uM) 0.953; (10uM) 1.05.
Take `CCNC(=O)c1noc(-c2cc(Cl)c(O)cc2O)c1-c1ccc(OC)cc1`: the fractional viability by setting is: (2uM) 0.542; (10uM) 0.368.
Consider `CCOC(=O)c1ccc(N2NC(=O)C(=Cc3ccc([N+](=O)[O-])o3)C2=O)cc1`, for which the fractional viability is, setting by setting: (2uM) 0.854; (10uM) 1.09.
With `CCn1cc(C(=O)O)c(=O)c2cc(F)c(N3CCN(C)CC3)cc21` [Pefloxacin Mesylate Dihydrate], the fractional viability by setting is: (2uM) 0.965; (10uM) 1.13.
Taken in the same sequence, the figures for `CCn1cc(C(=O)O)c(=O)c2cc(F)c(N3CCN(C)CC3)cc21` [Pefloxacin Mesylate] were 1 and 1.02.
Molecule `C=CC(=O)Nc1cccc(Nc2nc(Nc3ccc(NC4CN(CCF)C4)cc3OC)ncc2C(F)(F)F)c1` showed a fractional viability (2uM) of 0.897 and a fractional viability (10uM) of 0.432.
As to `CS(=O)(=O)Nc1ccc([N+](=O)[O-])cc1Oc1ccccc1` [Nimesulide], the fractional viability (2uM) came to 1 and the fractional viability (10uM) turned out to be 0.937.
In the same order, the values of `CNC(=C[N+](=O)[O-])NCCSCc1csc(CN(C)C)n1` [Nizatidine] are 1 and 1.08.
For the molecule `CCC1=C[C@@H]2CN(C1)Cc1c([nH]c3ccccc13)[C@@](C(=O)OC)(c1cc3c(cc1OC)N(C)[C@H]1[C@@](O)(C(=O)OC)[C@H](OC(C)=O)[C@]4(CC)C=CCN5CC[C@]31[C@@H]54)C2` [Vinorelbine Tartrate], the fractional viability is 0.363 (2uM) and 0.303 (10uM).
Take `CC(C)CN(C[C@@H](O)[C@H](Cc1ccccc1)NC(=O)O[C@H]1CCOC1)S(=O)(=O)c1ccc(N)cc1` [Amprenavir]: the fractional viability is, setting by setting: (2uM) 1.05; (10uM) 0.901.
`CCOC(=O)CCC(=O)O[C@H]1[C@H](O[C@@H]2[C@@H](C)[C@H](O[C@H]3C[C@@](C)(OC)[C@@H](O)[C@H](C)O3)[C@@H](C)C(=O)O[C@H](CC)[C@@](C)(O)[C@H](O)[C@@H](C)C(=O)[C@H](C)C[C@@]2(C)O)O[C@H](C)C[C@@H]1N(C)C` [Erythromycin Ethylsuccinate]: the fractional viability (2uM) worked out at 0.98 and the fractional viability (10uM) was 0.773.
As for `COc1cc(NC(=O)c2ccc(-c3ccc(Cl)cc3)o2)cc(OC)c1`, the fractional viability (2uM) was 1.21 and the fractional viability (10uM) was found to be 1.32.
In the case of `C[C@]12C=CC(=O)C=C1CC[C@@H]1[C@@H]2C(=O)C[C@@]2(C)[C@H]1CC[C@]2(O)C(=O)CO` [Prednisone], the fractional viability runs as follows: (2uM) 1.09; (10uM) 1.09.
For the molecule `c1ccc2c(Oc3nc(Nc4ccc(N5CCOCC5)cc4)c4ncn(C5CCCCC5)c4n3)cccc2c1` [Purmorphamine], the fractional viability reads like this: (2uM) 1.04; (10uM) 1.11.
Regarding `C=C1/C(=C\C=C2/CCC[C@]3(C)[C@@H]([C@H](C)CCCC(C)(C)O)CC[C@@H]23)C[C@@H](O)C[C@@H]1O` [Calcitriol], the fractional viability by setting is: (2uM) 0.965; (10uM) 0.937.
Consider `CCC[C@H](NC(=O)/C(C#N)=C/c1cccc(Br)n1)c1ccccc1` [Degrasyn (WP1130)], for which the fractional viability by setting is: (2uM) 0.343; (10uM) 0.0765.
Regarding `CCOC(=O)NCCCC(=O)NCCc1ccccc1`, the fractional viability is, setting by setting: (2uM) 0.877; (10uM) 0.962.
As for `OC[C@H]1O[C@@H](OCCc2ccc(O)cc2)[C@H](O)[C@@H](O)[C@@H]1O` [Salidroside], the fractional viability (2uM) was 0.744 and the fractional viability (10uM) amounted to 0.849.
In the case of `COC(=O)c1ccc2c(c1)[nH]c1ncnc(NCCCN3CCCCC3)c12`, the fractional viability is, setting by setting: (2uM) 0.785; (10uM) 0.985.
As for `C[C@H]1[C@H](NC(=O)/C(=N\OC(C)(C)C(=O)O)c2csc(N)n2)C(=O)N1S(=O)(=O)O` [Aztreonam], the fractional viability (2uM) stood at 1.07 and the fractional viability (10uM) was determined as 0.683.
With `CCc1c2c(nc3ccc(OC(=O)N4CCC(N5CCCCC5)CC4)cc13)-c1cc3c(c(=O)n1C2)COC(=O)[C@]3(O)CC` [Irinotecan HCl Trihydrate], the fractional viability came out at 0.901 (2uM) and 0.462 (10uM).
Turning to `CCc1c2c(nc3ccc(OC(=O)N4CCC(N5CCCCC5)CC4)cc13)-c1cc3c(c(=O)n1C2)COC(=O)[C@]3(O)CC` [Irinotecan], the fractional viability worked out at 1.04 (2uM) and 0.597 (10uM).
The molecule `CCc1cc(C(N)=S)ccn1` [Ethionamide] registered a fractional viability (2uM) of 1.12 and a fractional viability (10uM) of 1.05.
Turning to `OCc1ccc(O[C@@H]2O[C@H](CO)[C@@H](O)[C@H](O)[C@H]2O)cc1` [Gastrodin], the fractional viability by setting is: (2uM) 1.12; (10uM) 1.01.
Take `O=C(NC(NC(=S)Nc1ccc(F)c([N+](=O)[O-])c1)C(Cl)(Cl)Cl)C(c1ccccc1)c1ccccc1` (stereo unspecified): the fractional viability was 0.908 (2uM) and 0.406 (10uM).
Regarding `Cn1cc(C2=C(c3ccc(Cl)cc3Cl)C(=O)NC2=O)c2ccccc21`, the fractional viability worked out at 1.01 (2uM) and 0.935 (10uM).
Taken in the same sequence, the figures for `O=C(N/N=C/c1ccc([N+](=O)[O-])o1)c1ccc(O)cc1` [Nifuroxazide] were 1.36 and 0.246.
Take `Cc1cc(NC(=O)c2cccc(NC(=O)/C=C/CN(C)C)c2)ccc1Nc1nccc(-c2cccnc2)n1`: the fractional viability (2uM) was 1.16 and the fractional viability (10uM) was 0.489.
For the molecule `Cc1cccc(Nc2cc(Cl)nc(SCC(=O)O)n2)c1C`, the fractional viability runs as follows: (2uM) 0.793; (10uM) 0.725.
